Assay results published in patent publication US20090291088A1, “THERAPEUTIC COMBINATIONS OF ANTI-IGF-1R ANTIBODIES AND OTHER COMPOUNDS” (Biogen Idec MA Inc., priority 2008, published 2009).

B1: M14-G11.G4.P: full-length human IgG4.P version of Fab M14-G11 (antibody, V domains shown)
VH: EVQLLESGGGLVQPGGSLRLSCAASGFTFSNYPMYWVRQAPGKGLEWVSRISSSGGRTVYADSVKGRFTISRDNSKNTLYLQMNSLRAEDTAVYYCARDRWSRSAAEYGLGGYWGQGTLVTVSS
VL: DIQMTQSPDSLAVSLGERATINCKSSQSVLYSSNNKNYLAWYQQKPGQPPKLLIYLASTRESGVPDRFSGSGSGTDFTLTISSLQAEDVAVYYCQQYYSTWTFGQGTKVEIK
B2: M13-C06.G4.P.agly: full-length hinge-modified aglycosylated human gamma 4, kappa antibody with the binding domain of Fab M13-C06 (antibody)
heavy: EVQLLESGGGLVQPGGSLRLSCAASGFTFSIYRMQWVRQAPGKGLEWVSGISPSGGTTWYADSVKGRFTISRDNSKNTLYLQMNSLRAEDTAVYYCARWSGGSGYAFDIWGQGTMVTVSSASTKGPSVFPLAPCSRSTSESTAALGCLVKDYFPEPVTVSWNSGALTSGVHTFPAVLQSSGLYSLSSVVTVPSSSLGTKTYTCNVDHKPSNTKVDKRV[human IgG4 Fc with S228P T299A (EU numbers) not written out]
light: DIQMTQSPLSLSASVGDRVTITCQASRDIRNYLNWYQQKPGKAPKLLIYDASSLQTGVPSRFGGSGSGTDFSFTIGSLQPEDIATYYCQQFDSLPHTFGQGTKLEIKRTVAAPSVFIFPPSDEQLKSGTASVVCLLNNFYPREAKVQWKVDNALQSGNSQESVTEQDSKDSTYSLSSTLTLSKADYEKHKVYACEVTHQGLSSPVTKSFNRGEC

What was measured:
[1] = test system: Akt and p42/44 MAPK phosphorylation; experiment: Downstream signaling in MCF-7 cells: phospho-Akt and phospho-p44/42 MAPK Western blot; format: cell-based, human
Procedure: To detect the effect on downstream signaling, cell lysates were generated as described in Example 4. For signaling experiments control and test antibodies were added after serum starvation at 100 nM, 15 nM, 5 nM and 1 nM in 350 μl of fresh serum free media and incubated for 1 hour at 37° C. […] Cells were lysed and recovered sample separated using a 4-12% Bis-Tris gel and immobilized to nitrocellulose (Invitrogen Corp.). The IGF-1R signaling pathway was detected with phospho-Akt at site Thr308 (Cell signaling Technologies, #4056 (Danvers, Mass. USA)) and phospho-p44/42 MAPK at site Thr202/Tyr204 (Cell signaling Technologies, #9101) and anti-rabbit IgG-HRP (Cell Signaling Technologies, #7071). Bands were visualized using ECL luminol reagent (Amersham Biosciences, #RPN2109) and autoradiography. Each blot was stripped of antibody and re-probed respectively for total Akt (Cell signaling Technologies, #9272) or total p44/42 MAPK (Cell signaling Technologies, #9102) and anti-rabbit IgG-HRP. Bands visualized using ECL luminol reagent and autoradiography.
The effect of antibody on down stream signaling events such as Akt and MAPK phosphorylation was determined. […] Receptor was detected with anti-phospho-IGF-1R site Tyr1131 (Cell Signaling Technologies, #3021) or anti-IGF-1RP (Santa Cruz Biotechnology, #SC-9038) and anti-rabbit IgG-HRP (Cell Signaling Technologies, #7071). […]

[2] = target: T1, IGF-1R expressed on MCF-7 cells (Homo sapiens, UniProt P08069); experiment: Flow cytometry binding to wild type IGF-1R on MCF-7 tumor cells; settings: full-length antibodies
T1 construct: wild type IGF-1R expressed on MCF-7 tumor cells; endogenous in cells; host or cells: MCF-7
Procedure: The ability of Fabs to bind to the wild type IGF-1R was determined by flowcytometry using MCF-7 tumor cell line.
MCF-7 cells (Human Breast Adenocarcinoma from NCI) were split 24 hours prior to the setup of the assay to obtain 70% confluent monolayer. Routinely, MCF-7 cell line was maintained within 20 passages. Cells were lifted with cell dissociation buffer (Gibco catalog #13151-014), counted, washed and adjusted to 1×10^6 cells/ml and one ml of cells were then added to each tube (12×75 mm tube Falcon catalog# 352054). Cells were pelleted and supernatant removed by centrifugation at 1200 rpm for 5 min and 100 μl of diluted antibodies were then added to the cell pellet. Purified Fabs were tested at a starting concentration of either 210 or 60 μg/ml with 1:3 dilutions in FACS buffer, down to 0.001 μg/ml. FACS buffer used throughout the assay was PBS (without Ca++/Mg++) containing 1% BSA (Sigma catalog# A-7906; Sigma-Aldrich Corp. (St. Louis, Mo., USA)) and 0.1% Sodium Azide (Sigma catalog #S2002). […]
Once samples have been run and geometric means determined, antibody concentration (X axis) vs. geometric mean (Y axis) was graphed to the log 10, using Graphpad Prism (Prism Graph) graphing program. […]
The binding activity of human antibodies to wild type IGF-1R expressed on tumor cells was determined by flow cytometry. […]

Molecule	inhibition of IGF-1 and IGF-2 mediated phosphorylation of Akt and p42/44 MAPK ([1]; MCF-7, 100, 15, 5 and 1 nM)	binding to IGF-1R expressed on MCF-7 cells [2]	inhibition of IGF-1 and IGF-2 induced phosphorylation of Akt at Ser473 ([1]; MCF7, all concentrations tested (1-100 nM))
B1	inhibited	concentration dependent binding	
B2		concentration dependent binding	inhibited
